Assay results taken from the supplement of paper PMC12350171.

Tests used:
[1] = test system: Com20 synthetic gut community; experiment: Com20 community biomass OD578 after 24 h drug treatment relative to untreated (fraction of untreated control); higher = more community growth
[2] = test system: Salmonella enterica Typhimurium in Com20; experiment: S. Typhimurium luminescence in drug-pretreated Com20 relative to untreated Com20 (fold of untreated control); higher = more pathogen expansion
[3] = test system: Salmonella enterica Typhimurium (community: Com21 (Com20 + E. coli ED1a)); experiment: pathogen growth (luminescence or CFU) in drug-pretreated community relative to untreated community (fold of untreated control); higher = more pathogen expansion
[4] = drug pretreatment concentration 10 µM
[5] = drug pretreatment concentration 20 µM
[6] = drug pretreatment concentration 40 µM
[7] = drug pretreatment concentration 80 µM
[8] = drug pretreatment concentration 160 µM
[9] = drug pretreatment concentration 2.5 µM
[10] = drug pretreatment concentration 5 µM

| SMILES | Com20 community biomass OD578 [1, 4] | Com20 community biomass OD578 [1, 5] | Com20 community biomass OD578 [1, 6] | Com20 community biomass OD578 [1, 7] | Com20 community biomass OD578 [1, 8] | S. Typhimurium luminescence [2, 4] | S. Typhimurium luminescence [2, 5] | S. Typhimurium luminescence [2, 6] | S. Typhimurium luminescence [2, 7] | S. Typhimurium luminescence [2, 8] | pathogen growth [3, 4] | pathogen growth [3, 5] | pathogen growth [3, 6] | pathogen growth [3, 7] | pathogen growth [3, 8] | Com20 community biomass OD578 [1, 9] | Com20 community biomass OD578 [1, 10] | S. Typhimurium luminescence [2, 9] | S. Typhimurium luminescence [2, 10] | pathogen growth [3, 9] | pathogen growth [3, 10] |
| --- | --- | --- | --- | --- | --- | --- | --- | --- | --- | --- | --- | --- | --- | --- | --- | --- | --- | --- | --- | --- | --- |
| C[C@@H](O[C@H]1OCCN(Cc2n[nH]c(=O)[nH]2)[C@H]1c1ccc(F)cc1)c1cc(C(F)(F)F)cc(C(F)(F)F)c1 [Aprepitant] | 1.03 | 1.02 | 1.05 | 1.06 | 1.06 | 1.52 | 1.22 | 1.26 | 1.07 | 1.07 | 1.19 | 1.28 | 2.25 | 1.48 | 1.25 |  |  |  |  |  |  |
| CCc1oc2ccccc2c1C(=O)c1cc(Br)c(O)c(Br)c1 [Benzbromarone] | 0.943 | 0.936 | 0.87 | 0.712 | 0.724 | 2.46 | 1.76 | 2.1 | 4.61 | 3.77 | 2.26 | 2.03 | 2.88 | 2.94 | 5.94 |  |  |  |  |  |  |
| COCCOC(=O)C1=C(C)NC(C)=C(C(=O)OC/C=C/c2ccccc2)C1c1cccc([N+](=O)[O-])c1 (stereo not drawn) [Cilnidipine] | 1.07 | 1.02 | 1.04 |  |  | 0.71 | 0.846 | 1.09 |  |  | 0.758 | 0.865 | 0.717 |  |  | 1.06 | 1.07 | 1.5 | 0.816 | 0.928 | 0.855 |
| CCC[C@@H]1C[C@@H](C(=O)N[C@@H]([C@H]2O[C@H](SC)[C@H](O)[C@@H](O)[C@H]2O)[C@H](C)Cl)N(C)C1 [Clindamycin] | 0.002 | 0.004 | 0.001 | 0.003 | 0.006 |  |  |  |  |  | 4.4 | 3.9 | 3.68 |  |  |  |  |  |  |  |  |
| COc1cccc2c1C(=O)c1c(O)c3c(c(O)c1C2=O)C[C@@](O)(C(=O)CO)C[C@@H]3O[C@H]1C[C@H](N)[C@H](O)[C@H](C)O1 [Doxorubicin] | 0.964 | 0.935 | 0.89 | 0.888 | 0.922 | 1.08 | 0.943 | 0.567 | 0.5 | 1.12 | 1.34 | 0.803 | 0.653 | 1.19 | 1.13 |  |  |  |  |  |  |
| C[C@H]1c2cccc(O)c2C(=O)C2=C(O)[C@]3(O)C(=O)C(C(N)=O)=C(O)[C@@H](N(C)C)[C@@H]3[C@@H](O)[C@@H]21 [Doxycycline] | 0.018 | 0.002 | 0.006 | 0.007 | 0.007 |  |  |  |  |  |  |  |  |  |  |  |  |  |  |  |  |
| CC[C@H]1OC(=O)[C@H](C)[C@@H](O[C@H]2C[C@@](C)(OC)[C@@H](O)[C@H](C)O2)[C@H](C)[C@@H](O[C@@H]2O[C@H](C)C[C@H](N(C)C)[C@H]2O)[C@](C)(O)C[C@@H](C)C(=O)[C@H](C)[C@@H](O)[C@]1(C)O [Erythromycin] | 0.391 | 0.336 | 0.355 | 0.331 | 0.329 | 6.43 | 5.63 | 5.8 | 6.07 | 5.67 | 4.55 | 4.43 | 5.3 | 12.2 | 23.7 |  |  |  |  |  |  |
| N[C@@H](Cc1cc(I)c(Oc2cc(I)c(O)c(I)c2)c(I)c1)C(=O)O [L-Thyroxin] | 1.03 | 1.04 | 1.03 |  |  | 0.597 | 0.518 | 0.6 |  |  | 0.906 | 0.77 | 0.625 |  |  | 1.02 | 1.03 | 1.05 | 0.792 | 1.2 | 1.19 |
| CCOC(=O)N1CCC(=C2c3ccc(Cl)cc3CCc3cccnc32)CC1 [Loratadine] | 1.01 | 1.01 | 0.956 |  |  | 0.68 | 0.637 | 0.754 |  |  |  |  |  |  |  | 1 | 1.02 | 1.05 | 0.82 |  |  |
| CN(Cc1cnc2nc(N)nc(N)c2n1)c1ccc(C(=O)N[C@@H](CCC(=O)O)C(=O)O)cc1 [Methotrexate] |  |  |  |  |  | 2.06 | 2.98 | 4.13 |  |  | 1.21 | 1.31 | 1.85 |  |  |  |  | 1.87 | 1.4 | 1.37 | 1.51 |
| Clc1ccc(COC(Cn2ccnc2)c2ccc(Cl)cc2Cl)c(Cl)c1 (stereo not drawn) [Miconazole] | 1.07 | 1.04 | 0.941 | 0.743 | 0.449 | 1.49 | 1.09 | 0.943 | 1.57 | 2.71 | 1.64 | 1.29 | 1.78 | 3.28 | 4.61 |  |  |  |  |  |  |
| O=C(Nc1ccc([N+](=O)[O-])cc1Cl)c1cc(Cl)ccc1O [Niclosamide] |  |  |  |  |  | 2.05 | 1.61 | 1.67 | 1.68 | 2.53 | 0.921 | 0.838 | 0.692 | 1.27 | 1.16 |  |  |  |  |  |  |
| COc1ccc2[nH]c([S+]([O-])Cc3ncc(C)c(OC)c3C)nc2c1 (stereo not drawn) [Omeprazole] | 1.04 | 1.01 | 1.02 | 0.993 | 0.924 | 1.59 | 0.909 | 1.09 | 1.07 | 1.19 | 0.938 | 0.843 | 0.887 | 0.777 | 0.727 |  |  |  |  |  |  |
| CC(CN1c2ccccc2Sc2ccccc21)N(C)C (stereo not drawn) [Promethazine] |  |  |  |  |  | 1.47 | 1.14 | 1.01 | 1.08 | 1.3 | 1.07 | 1.57 | 1.03 | 1.61 | 2.48 |  |  |  |  |  |  |
| CNCCCC1c2ccccc2C=Cc2ccccc21 [Protriptyline] |  |  |  |  |  | 1.48 | 1.17 | 0.997 | 1.22 | 1.78 | 1.12 | 1.4 | 1.2 | 1.31 | 2.21 |  |  |  |  |  |  |
| CC/C(=C(\c1ccccc1)c1ccc(OCCN(C)C)cc1)c1ccccc1 [Tamoxifen] |  |  |  |  |  | 1.08 | 0.813 | 1.44 |  |  | 1 | 0.839 | 1.59 |  |  |  |  | 1.42 | 1.07 | 1.05 | 1.06 |
| NC[C@H]1O[C@H](O[C@H]2[C@H](O)[C@@H](O[C@H]3O[C@H](CO)[C@@H](O)[C@H](N)[C@H]3O)[C@H](N)C[C@@H]2N)[C@H](N)C[C@@H]1O [Tobramycin] |  |  |  |  |  | 1.66 | 0.901 | 0.799 | 0.769 | 0.357 | 1.11 | 1.27 | 1.52 | 4.91 | 1.8 |  |  |  |  |  |  |
| Cc1c(Cl)cccc1Nc1ccccc1C(=O)O [Tolfenamic acid] |  |  |  |  |  | 1.57 | 1.06 | 1.19 | 1.26 | 2.59 | 0.982 | 0.906 | 0.946 | 0.943 | 1.29 |  |  |  |  |  |  |
| CCOC1O[C@H]([C@@H](COCc2ccccc2)OCc2ccccc2)[C@H](OCc2ccccc2)[C@H]1O (stereo partly drawn) [Tribenoside] |  |  |  |  |  | 1.36 | 0.797 | 0.894 | 0.935 | 1.22 | 1.45 | 1.19 | 1.02 | 0.956 | 0.685 |  |  |  |  |  |  |

Synthetic gut communities (20 or 21 species) grown anaerobically with drug for 24 h at the dose given, then challenged with the named pathogen. Pathogen growth (luminescence, or colony counts for V. cholerae) or community OD578 as fold of untreated communities, mean of three; above 1 = more growth. No active / inactive call.
